Experimental data reported in PubChem BioAssay AID651742 (Broad Institute, 2012).
In all, about 5,600 compounds went through this assay and about 780 (14%) were called active. This list was built around the results that the source calls inconclusive (neither active nor inactive); the mix of calls is not that of the screen.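 Rule for the calls: active = mean signal decrease across replicates above about 35% based on untreated-well scatter, with enough replicates individually passing (limit read from the data); inconclusive = no rule stated though some were filed; inactive = the rest.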

Assay: NIH3T3 cell viability loss – cherry-pick, single point, cytotoxicity control for T. cruzi proliferation inhibitor project, confirmation (AID 651742);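 note: 0% = median of neutral control wells and 100% = median of positive control wells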
Settings: NIH/3T3 viability, CellTiter-Glo ATP luminescence, 90 h; at 8.35 µM; active compounds read high

Structure (SMILES)	cytotoxicity (signal decrease)
C[C@@H]1CN([C@@H](C)CO)S(=O)(=O)c2ccc(C3=CCCCC3)cc2O[C@@H]1CN(C)Cc1ccncc1	inconclusive: 34.3%
C[C@H](CO)N1C[C@H](C)[C@H](CN(C)Cc2ccc(Oc3ccccc3)cc2)Oc2c(NC(=O)NC3CCCCC3)cccc2C1=O	inconclusive: 34.4%
C[C@H](CO)N1C[C@H](C)[C@@H](CN(C)Cc2ccccc2F)Oc2cc(C#CCN(C)C)ccc2S1(=O)=O	active: 55.2%
C[C@@H]1CN([C@@H](C)CO)S(=O)(=O)c2ccc(-c3cccc(C#N)c3)cc2O[C@@H]1CN(C)C(=O)Nc1ccccc1F	active: 48.4%
COc1cccc(-c2ccc([C@@H]3[C@@H](CO)N4CCCCN(CC5CCOCC5)C[C@@H]34)cc2)c1	inactive: 17.6%
COc1cccc(C#Cc2ccc3c(c2)O[C@@H](CN(C)C(C)=O)[C@H](C)CN([C@@H](C)CO)S3(=O)=O)c1	inconclusive: 35.3%
COc1ccc(S(=O)(=O)N2CCCCN3[C@@H](CO)[C@H](c4ccc(C#CC5CC5)cc4)[C@@H]3C2)cc1	active: 45.3%
C[C@@H]1CCCCO[C@H](CN(C)C(=O)Nc2ccc(C(F)(F)F)cc2)[C@@H](C)CN([C@H](C)CO)C(=O)c2cc(NC(=O)Nc3ccc(C(F)(F)F)cc3)ccc2O1	inactive: 0.893%
COc1ccccc1S(=O)(=O)N(C)C[C@H]1Oc2cc(/C=C/c3ccccc3)ccc2S(=O)(=O)N([C@@H](C)CO)C[C@@H]1C	inconclusive: 34.1%
O=C(c1ccc2c(c1)OCO2)N1CCCCN2[C@@H](CO)[C@@H](c3ccc(-c4ccccc4)cc3)[C@@H]2C1	inconclusive: 38%
Cc1ccc(-c2cnc3c(c2)C(=O)N([C@@H](C)CO)C[C@H](C)[C@@H](CN(C)CC2CCCC2)O3)cc1	inconclusive: 37.1%
CN1[C@H](C(=O)NCc2ccccn2)[C@@H](CO)[C@@H]2Cn3c(ccc(-c4cccc(F)c4)c3=O)[C@@H]21	inactive: 17.3%
C[C@H]1CN([C@@H](C)CO)S(=O)(=O)c2ccc(-c3cccc(F)c3)cc2O[C@H]1CN(C)S(=O)(=O)c1ccccc1	active: 42.1%
C[C@@H]1CN([C@@H](C)CO)S(=O)(=O)c2ccc(-c3ccccc3)cc2O[C@H]1CN(C)CC1CCCC1	active: 58%
Cc1cccc(-c2ccc([C@H]3[C@H](CO)N4CCCCN(S(=O)(=O)c5cccs5)C[C@@H]34)cc2)c1	inactive: 29.1%
CN1c2ccc(Br)cc2[C@@H]2[C@@H](CCN2S(=O)(=O)c2cccc(F)c2)[C@@H]1CO	active: 47.9%
O=C(Nc1ccccc1)N1CCCCN2[C@H](CO)[C@H](c3ccc(-c4ccccc4)cc3)[C@H]2C1	active: 55.6%
C[C@H](CO)N1C[C@H](C)[C@H](CN(C)Cc2ccccc2)OCCCC[C@H](C)Oc2ccc(NS(=O)(=O)c3ccc(Cl)cc3)cc2C1=O	inconclusive: 42.4%
COc1cccc(NC(=O)N(C)C[C@H]2Oc3ncc(C#Cc4ccccc4)cc3C(=O)N([C@H](C)CO)C[C@@H]2C)c1	inconclusive: 34.9%

Structure (SMILES)	cytotoxicity (signal decrease)
N#Cc1cccc(-c2ccc3c(c2)[C@@H]2[C@@H](CCN2S(=O)(=O)c2ccccc2F)[C@H](CO)N3)c1	active: 45.7%
COc1ccc(S(=O)(=O)Nc2ccc3c(c2)C(=O)N([C@H](C)CO)C[C@H](C)[C@@H](CN(C)S(=O)(=O)c2ccc(Cl)cc2)OCCCC[C@@H](C)O3)cc1	inactive: 5.5%
O=S(=O)(c1ccccc1)N1CC[C@@H]2[C@@H](CO)Nc3ccc(-c4ccccc4F)cc3[C@@H]21	inconclusive: 36%
CC(C)C#Cc1ccc2c(c1)O[C@@H](CN(C)C(=O)C1CCCCC1)[C@H](C)CN([C@H](C)CO)S2(=O)=O	inconclusive: 41%
COc1ccccc1S(=O)(=O)N1CC[C@@H]2[C@H]1c1cc(-c3cccc(C#N)c3)ccc1N(C)[C@H]2CO	inconclusive: 34.1%
O=C(C[C@H]1CC[C@@H]2[C@H](COC[C@H](O)CN2C(=O)Nc2ccc(Cl)c(Cl)c2)O1)NCc1ccc(Cl)cc1	inconclusive: 34.3%
COC(=O)C[C@H]1CC[C@H]2[C@H](COc3ccc(NC(=O)Nc4cccc(Cl)c4)cc3C(=O)N2C)O1	inconclusive: 34.1%
CN1c2ccc(-c3ccccc3F)cc2[C@@H]2[C@@H](CCN2S(=O)(=O)c2ccccc2F)[C@@H]1CO	inconclusive: 35.8%
C[C@@H]1CCCCO[C@@H](CN(C)Cc2ccc3c(c2)OCO3)[C@@H](C)CN([C@@H](C)CO)C(=O)c2cc(NC(=O)Nc3ccc(C(F)(F)F)cc3)ccc2O1	inconclusive: 35.6%
COc1ccc(S(=O)(=O)N(C)C[C@H]2OCCCC[C@H](C)Oc3ccc(N(C)C)cc3C(=O)N([C@H](C)CO)C[C@@H]2C)cc1	inactive: -25.1%
C[C@H]1CN([C@@H](C)CO)C(=O)c2cccc(NC(=O)c3nc4ccccc4s3)c2O[C@H]1CN(C)Cc1ccc(Cl)c(Cl)c1	active: 47.3%
C[C@@H]1CCCCO[C@H](CN(C)Cc2ccccc2)[C@H](C)CN([C@H](C)CO)C(=O)c2cc(NS(=O)(=O)c3ccc(Cl)cc3)ccc2O1	inconclusive: 36.7%
C[C@H](CO)N1C[C@H](C)[C@@H](CN(C)CC2CCCCC2)Oc2ccc(NS(=O)(=O)c3ccc(F)cc3)cc2CC1=O	inactive: 33.4%
CC(C)C#Cc1ccc([C@H]2[C@@H](CO)N3CCCCN(S(=O)(=O)Cc4ccccc4)C[C@H]23)cc1	active: 57.9%
CCCC#Cc1ccc([C@@H]2[C@H]3CN(S(=O)(=O)c4ccccc4C)CCCCN3[C@H]2CO)cc1	inconclusive: 37.9%
CC(C)C#Cc1ccc2c(c1)O[C@H](CN(C)Cc1ccncc1)[C@H](C)CN([C@H](C)CO)S2(=O)=O	inconclusive: 35.2%
C[C@@H]1CN([C@H](C)CO)C(=O)Cc2cc(NS(=O)(=O)c3ccc(Cl)cc3)ccc2O[C@@H]1CN(C)Cc1ccc2c(c1)OCO2	inconclusive: 35%
C[C@@H]1CN([C@H](C)CO)C(=O)c2cc(NC(=O)Nc3ccc(C(F)(F)F)cc3)ccc2O[C@@H](C)CCCCO[C@@H]1CN(C)Cc1ccc2c(c1)OCO2	inconclusive: 37.4%
